# Some of the results follow. At the low end of the ranking, values are background and their order means little.
# Biological target: SIX1 homeodomain (reference allele) (UniProt Q15475)
# Experiment: universal protein binding microarray
# Details: Universal all-10-mer PBM (8x60K, AMADID 030236), 300 nM GST-tagged protein, Alexa Fluor 488 anti-GST; buffer, salt, pH and temperature not stated; high values mean tight binding; most listed sequences are background and not binding sites; double strand, one strand shown
row,Sequence,binding signal [E-score]
1,ATAAAGGG,-0.139
2,CTGTGATC,0.328
3,ATTCCCTG,-0.0532
4,CATCGCCA,-0.0374
5,CATGGTAC,0.0444
6,CAGATGGC,0.129
7,GCTCACGA,-0.143
8,GCTTGAGA,0.0238
9,CTCACGAG,-0.106
10,ATCAAAAA,0.153
11,CCAGCATA,0.0946
12,AAGACGTC,-0.026
13,CCTGCTAC,0.0839
14,AAACATTC,-0.159
15,ATCGTAGA,0.193
16,GACTAAAC,-0.111
17,ACGGTAAT,0.0335
18,TGGGGAAA,0.00963
19,CTACTTGC,-0.0157
20,CAATATAA,0.109
21,GCAGTGGC,-0.218
22,CCTCACGC,-0.179
23,ATTCTTGG,-0.0567
24,CCCACCAA,-0.0249
25,AGTGGGCC,-0.334

row,Sequence,binding signal [E-score]
1,CTCACTCC,-0.107
2,CAATGATC,0.31
3,AAAATTTG,-0.116
4,CCAGACCC,0.075
5,CGACCGCC,-0.215
6,CAACATAC,0.0508
7,AATTAATG,-0.00941
8,TATTGTCA,0.105
9,TAGCCCGA,-0.0898
10,GATCCTCA,0.295
11,TTAATAAA,-0.127
12,ACCGTGGG,-0.00766
13,AACCTGCT,0.0479
14,AGTGCAAA,-0.143
15,ACTTTCAT,-0.162
16,AATCAAAG,-0.211
17,CTCAGGTA,0.16
18,GCGCAGTA,-0.0705
19,CAGATTTC,-0.126
20,ATCACCGC,0.191
21,ACTTAGCG,0.0127
22,AATAGACA,0.0469
23,TATTTACA,0.176
24,AACATCTG,-0.206
25,AAAATGAG,0.0679

row,Sequence,binding signal [E-score]
1,AAAGCTAT,0.00446
2,CCATTGCA,-0.119
3,GAGATTGA,-0.0193
4,ACGGGCGC,-0.216
5,AAAACATA,-0.0275
6,ACCACAGA,0.0991
7,CATCCTCC,0.153
8,GCGCCAGA,-0.13
9,AGGAATCG,-0.13
10,GATGAGCC,0.249
11,TCACGAGA,0.00962
12,ACCGCATA,0.202
13,CCATGAGA,0.242
14,GAAAGGAA,-0.345
15,GCGAAACC,0.00927
16,ATTTGACC,-0.0951
17,CCCTATAA,0.0541
18,ACGGTGAC,-0.106
19,CCGTATCG,0.457
20,ATCGAGGA,0.199
21,CGCCAAAG,-0.305
22,ACGCCGGA,0.119
23,ATAGCTTA,0.214
24,ACCGGCAC,0.0657
25,AACGTATT,0.104

row,Sequence,binding signal [E-score]
1,GCACCCGC,0.0943
2,CCACATGG,-0.0309
3,CGTTTCAG,-0.153
4,AAAGCTTA,-0.101
5,AAAAGTTA,-0.18
6,ATACTTAA,0.19
7,ATCCGAGG,0.326
8,GGCAACAC,0.0683
9,AAATTTAC,-0.0872
10,TAGTAAAA,0.00847
11,AGGATCTA,0.174
12,ATGGACCG,-0.238
13,GTTACACA,-0.154
14,AAACCGGT,0.0421
15,ATACAGTG,0.19
16,GTATAGGA,0.0623
17,AAATTCCG,-0.0667
18,ATCGAGCC,0.0621
19,ACTGGATG,-0.0141
20,ATGGCAGA,0.139
21,GGACCTAA,0.0132
22,GATAAATA,0.138
23,GCCTAACC,-0.15
24,GGCATTGA,-0.16
25,CTTCACGA,-0.114

row,Sequence,binding signal [E-score]
1,CCGGAGCA,-0.0627
2,ACGAATAC,0.0962
3,AAGGCAGC,-0.219
4,CGACTTAG,-0.15
5,TGTACACA,-0.0577
6,GCAATGAC,-0.0743
7,CATCCATC,0.0812
8,ATCTTTGC,0.0855
9,AGGAATAC,0.211
10,CCACTACC,-0.0909
11,ATGATGCC,0.157
12,AGCCACAT,-0.0809
13,TCTAATAA,0.0732
14,AAAGAACC,-0.156
15,GACGGCGA,-0.172
16,CCCGTTTA,0.0838
17,GCGACCAC,-0.0536
18,AGGCGGTC,-0.123
19,ACTTTGGG,-0.0954
20,GGGAAGGA,0.103
21,ATGAGCCC,0.117
22,GGGCCCAC,-0.35
23,TAGTAGAA,0.043
24,ACATCCTG,0.0768
25,AGCAGTGG,-0.181

row,Sequence,binding signal [E-score]
1,TATTGACA,0.166
2,ACTCCCCG,0.0209
3,ACTTATCG,0.053
4,CTACAAAG,-0.0453
5,AAGGTCAA,-0.311
6,ATTGTAGG,0.0541
7,AGCCGCTG,-0.12
8,CATCGGGA,0.164
9,ATGCGGGG,-0.0579
10,CAACTACC,-0.0871
11,CCGCTTAG,-0.206
12,TCATCCGA,0.255
13,ACCCAAAT,-0.154
14,CTCAGTCC,-0.0046
15,CCGCCAAC,0.0571
16,AGATGAAA,0.0685
17,TATTATGA,0.207
18,CGTAAGGA,0.0418
19,ATCTCGAA,0.0229
20,CAAGCTCA,-0.145
21,CATAGTGG,-0.0644
22,CGTTTAAG,-0.0763
23,TATCCGGA,0.391
24,CTACCAAA,-0.141
25,CACGGTAA,-0.0875

row,Sequence,binding signal [E-score]
1,GCGTACCA,-0.0841
2,CGGGCGTC,-0.141
3,CATTGGCA,-0.0649
4,GATGAAGA,-0.0878
5,ATAATTGC,-0.089
6,CTGGATTA,0.177
7,AGCGCTAG,-0.133
8,GCCCCTAC,0.102
9,CTCTTCCA,-0.117
10,ATGTCGTC,-0.119
11,GATATGGA,0.423
12,ACACACGC,-0.109
13,TCCGTAAA,0.0655
14,CTCGGATA,0.375
15,ACCATTGA,-0.0201
16,AGGGAAAT,-0.173
17,CTTCCTGC,-0.239
18,GACAAGCA,-0.191
19,CTATGTGC,-0.11
20,ATATTAAG,0.215
21,AAATCAAT,-0.13
22,CAACGACA,-0.0482
23,CACTCAAA,-0.246
24,ACGTTACA,-0.221
25,CTATCTCA,0.256

row,Sequence,binding signal [E-score]
1,CTTTATTA,0.035
2,CTTACTTA,-0.12
3,TGCGATAA,0.117
4,AACATGCA,-0.0116
5,CGTGAGGC,-0.278
6,ACGCACAA,-0.294
7,CGAGCATA,0.036
8,AACTAGGA,-0.112
9,CACCCAAG,0.151
10,AGTCAGAA,-0.287
11,GTATGATA,0.426
12,AGTATACG,0.26
13,GACGTCTA,-0.0975
14,CATAGCGA,-0.0464
15,CGCCGCAG,-0.124
16,ACCGGATC,0.417
17,ATTGCTGG,-0.17
18,GGCTTTAC,-0.215
19,CAGAGCGC,-0.318
20,GTGTATAA,0.134
21,ATATCCCG,0.42
22,AACTTAGA,0.122
23,CAGACGCG,-0.141
24,AGCAGGAT,0.242
25,AGGTCTAG,-0.0915

row,Sequence,binding signal [E-score]
1,ACGAGGGA,0.0177
2,GATTACCC,0.191
3,CGAGTTTC,-0.201
4,CGTGAGGA,-0.0129
5,GTGACCTA,-0.14
6,CCATAAAG,-0.103
7,CCGCATCC,0.159
8,ATTTAGAA,-0.21
9,CCACGGCG,-0.102
10,GATGTAGC,-0.231
11,GGTTAACC,-0.129
12,CCGTCTAC,0.171
13,AAATTGTC,-0.209
14,AACCGCTT,-0.273
15,CCTGAGAG,0.0138
16,AAGCAGAT,0.109
17,CCTCGGGA,0.0254
18,ATTAGACC,0.0991
19,CTTGTTCA,-0.113

# From article PMC10668032
